Experimental data taken from PubChem BioAssay AID485360 (National Center for Advancing Translational Sciences (NCATS), 2010).
The campaign covered roughly 230,000 compounds. About 1,500 (0.65%) were called active. Inconclusive means that the source gave no clear call. Such entries were picked first, then a sample of the others. Calls follow the shape of the dose curve; as a rule, active = well fitted inhibition curve with a large enough effect; inconclusive = small, poorly fitted or top-dose-only effect; inactive = no such curve, though single readings can be large or run the other way. Potencies of inconclusive entries are doubtful fits and often do not repeat.

The compounds below were run against Lethal(3)malignant brain tumor-like protein 1 (Homo sapiens) (UniProt Q9Y468) (assay: qHTS Assay for the Inhibitors of L3MBTL1). Settings: AlphaScreen L3MBTL1–H3K9me1 peptide binding; activity, negative = inhibition: at 57.1 µM (top of the series).
UniProt Q9Y468, sequence (Q9Y468 whole entry, looked up): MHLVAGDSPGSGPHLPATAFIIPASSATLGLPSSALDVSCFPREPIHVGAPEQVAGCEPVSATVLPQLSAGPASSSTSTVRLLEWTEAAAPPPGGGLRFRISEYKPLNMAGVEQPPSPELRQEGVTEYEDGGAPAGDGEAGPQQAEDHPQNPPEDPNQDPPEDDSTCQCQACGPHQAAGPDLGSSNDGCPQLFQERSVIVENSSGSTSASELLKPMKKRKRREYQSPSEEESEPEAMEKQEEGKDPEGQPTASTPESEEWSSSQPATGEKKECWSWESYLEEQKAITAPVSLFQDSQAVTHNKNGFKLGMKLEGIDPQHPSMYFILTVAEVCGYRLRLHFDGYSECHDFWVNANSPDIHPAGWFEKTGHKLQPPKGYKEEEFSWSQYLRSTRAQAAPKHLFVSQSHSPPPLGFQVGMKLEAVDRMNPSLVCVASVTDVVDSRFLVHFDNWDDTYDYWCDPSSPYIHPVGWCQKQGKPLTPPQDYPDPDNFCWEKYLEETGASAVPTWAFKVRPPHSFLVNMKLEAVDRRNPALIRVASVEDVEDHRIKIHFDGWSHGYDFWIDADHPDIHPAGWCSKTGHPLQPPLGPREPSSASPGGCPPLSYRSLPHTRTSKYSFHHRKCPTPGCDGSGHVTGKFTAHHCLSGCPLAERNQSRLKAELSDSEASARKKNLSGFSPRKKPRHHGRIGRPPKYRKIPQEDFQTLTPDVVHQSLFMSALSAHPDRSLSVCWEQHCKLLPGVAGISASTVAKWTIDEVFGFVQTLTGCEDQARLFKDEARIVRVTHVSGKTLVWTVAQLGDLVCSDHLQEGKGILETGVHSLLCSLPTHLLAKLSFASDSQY
How it was run: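 Displacement of a biotinylated histone H3(1-15) peptide monomethylated at Lys9 (75 nM) from L3MBTL1 (50 nM) was measured by AlphaScreen after a 30 min room-temperature compound incubation; cefsulodin titration served as intraplate control.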
% is scaled to controls: 0 for no effect and ±100 for the full control effect; potency is read from the fitted curve at half-maximal effect; tags tell the direction and shape of the fitted curve.
Also: nearly all actives have a fitted effect of over 60% in size.

Row | Structure (SMILES) | activity, negative = inhibition | Potency
1 | Nn1cnnc1N/N=C\c1ccc(-c2ccccc2[N+](=O)[O-])o1 | inactive: -13.3% | –
2 | O=C(Nc1ccccc1)NC1(C(=O)NCc2cccs2)CCCCC1 | inactive: 0.105% | –
3 | CCOc1ccc(N2C(=O)CC(N)C2=O)cc1 (configuration not stated) | – | inconclusive: 5.01 µM [inhibitor, full curve, poor fit]
4 | O=S(=O)(c1ccccc1)c1nc(NC2CC2)sc1Cl | – | inconclusive: 0.631 µM [inhibitor, full curve, poor fit]
5 | COc1ccc(Cc2nc3c4c(ncn3n2)Oc2c(ccc3ccccc23)C4c2ccc(OC)c(OC)c2)cc1 (configuration not stated) | – | inconclusive: 6.31 µM [inhibitor, single point]
6 | CC1(C)CC(C)(c2ccc(O)cc2O)N(c2cccc(Cl)c2)C(=S)N1 (configuration not stated) | inactive: -3.78% | –
7 | CCCCOc1ccc2c(c1)C(=O)c1cc(O)ccc1-2 | – | inconclusive: 8.91 µM [inhibitor, partial curve]
8 | O=C(O)c1ccccc1-n1cccc1C(=O)O | – | inconclusive: 28.2 µM [inhibitor, single point]
9 | CNC(=O)c1nnsc1S(=O)(=O)c1ccc(Cl)cc1 | – | inconclusive: 0.355 µM [inhibitor, partial curve]
10 | O=C(Nc1cccc(-c2cn3c(n2)SCC3)c1)c1ccc2ccccc2n1 | – | inconclusive: 39.8 µM [inhibitor, partial curve, poor fit]
11 | Cc1nnc(SCC2=C(C(=O)O)N3C(=O)C(NC(=O)Cn4nc(C(F)F)cc4C)C3SC2)s1 (configuration not stated) | – | inconclusive: 25.1 µM [inhibitor, single point]
12 | COc1ccc2[nH]c3c(c2c1)CCN1C(=O)C(CC(=O)NCc2ccco2)C[C@H](C(=O)N2CCCCC2)[C@@]31CCc1ccccc1 (some centres not stated) | – | inconclusive: 28.2 µM [inhibitor, single point]
13 | CC(C)CN(Cc1c(O)ccc2ccccc12)CC(C)C | inactive: -6.84% | –
14 | O=C1OCCC1Sc1nnc(-c2ccco2)o1 (configuration not stated) | – | inconclusive: 6.31 µM [inhibitor, single point]
15 | CCCNS(=O)(=O)c1ccc(OCC(=O)N2CCOCC2)cc1 | – | inconclusive: 5.01 µM [inhibitor, single point]
16 | Cc1ccc(S(=O)(=O)N2C(=O)c3cccc4cccc2c34)cc1 | – | inconclusive: 25.1 µM [inhibitor, single point]
17 | Cc1c(C=O)c2ccccc2n1CCOc1ccccc1F | inactive: -1.47% | –
18 | COc1ccc(C(=O)C(/C=N/O)=N/Nc2ccc(F)cc2)cc1 | – | inconclusive: 14.1 µM [inhibitor, partial curve]
19 | O=C(COC(=O)CCN1C(=O)/C(=C\C=C\c2ccccc2)SC1=S)Nc1ccc(Br)cc1 | – | inconclusive: 20 µM [inhibitor, partial curve, poor fit]
20 | CC(=O)NC1C(Oc2ccc(C)cc2)OC2COC(c3ccco3)OC2C1O (configuration not stated) | – | inconclusive: 28.2 µM [inhibitor, single point]
21 | O=C(CO/N=C1\CCCc2nonc21)Nc1ccccc1Cl | – | inconclusive: 39.8 µM [inhibitor, single point]
22 | COc1ccccc1N1CCN(/N=C/c2cccc(OC)c2O)CC1 | – | inconclusive: 17.8 µM [inhibitor, partial curve]
23 | Cc1csc(Nc2ccc(Cl)cc2)[n+]1-c1ccc(Cl)cc1 | – | inconclusive: 7.94 µM [inhibitor, full curve, poor fit]

Row | Structure (SMILES) | activity, negative = inhibition | Potency
24 | Cc1ccc(S(=O)(=O)N2[C@@H](c3ccc(Cl)c(Cl)c3)C(C(=O)O)=C[C@H]2CC2CCCC2)cc1 | inactive: -8.05% | –
25 | CC(C)NCCCCOc1ccc(Br)cc1Cl | inactive: 50.9% | –
26 | CCCCN(C)C(=S)Nc1ccc2nc3n(c(=O)c2c1)CCCCC3 | – | inconclusive: 3.55 µM [inhibitor, full curve, poor fit]
27 | Cn1c(SCC(=O)NC(=O)Cc2ccccc2)nnc1-c1ccc(F)cc1 | inactive: 7.48% | –
28 | COc1cnc(-c2ccccn2)nc1Oc1ccccc1 | – | active: 31.6 µM
29 | C[C@@H]1O[C@@H](O[C@H]2[C@H](O)[C@@H](O)[C@H](Oc3c(-c4ccc(O)c(O)c4)oc4cc(O)cc(O)c4c3=O)O[C@@H]2CO)[C@H](O)[C@H](O)[C@H]1O | – | inconclusive: 25.1 µM [inhibitor, partial curve]
30 | COc1ccc(CNC(=O)C[C@H]2C[C@H](C(=O)N3CCCCC3)[C@@]3(C)c4[nH]c5cc(-c6ccco6)ccc5c4CCN3C2=O)cc1OC | – | inconclusive: 28.2 µM [inhibitor, partial curve]
31 | CCOC(=O)c1c(C)[nH]c(C(=O)N/N=C/c2cccc(OC)c2)c1C | inactive: 3.47% | –
32 | O=C(NNC(=S)NC1CCCCC1)c1ccccc1O | inactive: -11.2% | –
33 | CN(C)c1ccc(/C=C2/C(=O)N(c3ccc([N+](=O)[O-])cc3)N=C2N2CCOCC2)cc1 | – | inconclusive: 28.2 µM [inhibitor, single point]
34 | CCOc1ccc(OCC)c(NC(=O)CN2CCN(c3cc(C)ccc3C)CC2)c1 | – | inconclusive: 25.1 µM [inhibitor, partial curve]
35 | O=C(CSc1nc(NS(=O)(=O)c2ccccc2)cc(=O)[nH]1)Nc1ccc(F)cc1 | – | inconclusive: 28.2 µM [inhibitor, single point]
36 | CCCCC(CC)C(=O)Nc1ccccc1C#N (configuration not stated) | – | inconclusive: 6.31 µM [inhibitor, single point]
37 | C/C(=N\S(=O)(=O)c1ccc(C)cc1)N1CCN(S(=O)(=O)c2ccccc2)C1 | – | inconclusive: 0.112 µM [inhibitor, full curve, poor fit]
38 | C=CCOC(=O)c1[nH]c2c(c1C)C(=O)CC(c1ccco1)C2 (configuration not stated) | – | inconclusive: 28.2 µM [inhibitor, single point]
39 | COc1ccccc1N1CCN(C(=O)COc2ccc(C)cc2Br)CC1 | inactive: -3.32% | –
40 | O=C1C(SCCO)=C(SCCO)C(=O)c2ccccc21 | – | inconclusive: 28.2 µM [inhibitor, partial curve]
41 | N#Cc1nc(COc2ccccc2)oc1N1CCN(Cc2ccccc2)CC1 | – | inconclusive: 12.6 µM [inhibitor, partial curve]
42 | Cn1c(=O)c(C(=O)COC(=O)c2cc(C(F)(F)F)nc3c(C(F)(F)F)cccc23)c(N)n(CC2CC2)c1=O | inactive: 0.0861% | –
43 | Cc1ccc(NC(=O)CN2C(=O)S/C(=C\c3cccn3-c3cccc(C(=O)O)c3)C2=O)c(C)c1 | – | inconclusive: 35.5 µM [inhibitor, single point]
44 | COc1ccc(Cn2cnc3c(N)c(C)c(C)cc32)cc1 | – | inconclusive: 28.2 µM [inhibitor, partial curve]
45 | Cc1ccc(N(C(C)C(=O)N2CCN(Cc3ccccc3)CC2)S(C)(=O)=O)cc1 (configuration not stated) | – | inconclusive: 0.794 µM [inhibitor, full curve, poor fit]
46 | O=C(Nc1cccnc1)c1cc(-c2ccc(Br)cc2)on1 | – | inconclusive: 39.8 µM [inhibitor, single point]

Row | Structure (SMILES) | activity, negative = inhibition | Potency
47 | COc1ccc(/C(C)=N/NC(=O)CNC(=O)Cc2ccccc2)c(OC)c1 | inactive: 13.4% | –
48 | COc1ccccc1NC(=S)NC(=O)c1ccc(-c2ccc(Cl)cc2)o1 | inactive: -2.63% | –
49 | CCc1cc2c3c(c(=O)oc2cc1OCC(=O)OC)CCCC3 | inactive: 3.64% | –
50 | C/C(CC(=O)Nc1cccc(Cl)c1Cl)=N\NC(=O)c1ccccc1C | – | inconclusive: 4.47 µM [inhibitor, full curve, poor fit]
51 | O=C(/C=C/c1ccc(Cl)cc1Cl)c1ccc[nH]1 | – | inconclusive: 14.1 µM [inhibitor, partial curve, poor fit]
52 | COc1ccc(C2C(C(C)=O)=C(C)N=c3s/c(=C/c4ccc5c(c4)OCO5)c(=O)n32)cc1 (configuration not stated) | – | inconclusive: 39.8 µM [inhibitor, single point]
53 | O=[N+]([O-])c1c(C(Cl)Cl)nn(-c2ccc(Cl)cc2)c1N1CCCCC1 | – | inconclusive: 39.8 µM [inhibitor, partial curve, poor fit]
54 | Cc1nn(C)c(Cl)c1C(=O)NCC(=O)O | – | inconclusive: 6.31 µM [inhibitor, single point]
55 | CN1CCC(OC(c2ccccc2)c2ccccc2)CC1 | inconclusive: -42.6% [inhibitor] | –
56 | S=C1NC2=C(CCC/C2=C\c2ccccc2)C(c2ccccc2)N1 (configuration not stated) | inactive: -12.9% | –
57 | COc1ccc(O)c(C(=O)CC(=O)c2ccccc2C)c1 | – | inconclusive: 35.5 µM [inhibitor, partial curve]
58 | CCOC(=O)C1=C(C)OC(N)=C(C#N)C1c1cccc(C)c1 (configuration not stated) | inactive: -1.62% | –
59 | O/N=C/c1ccccc1OCc1ccc(Cl)cc1 | – | inconclusive: 6.31 µM [inhibitor, single point]
60 | CCOc1ccccc1OCCOCCOc1ccccc1[N+](=O)[O-] | inactive: 10.7% | –
61 | O=C(CN1CCC2(CC1)OCCO2)c1ccc2cc[nH]c2c1 | inactive: 4.67% | –
62 | COc1ccc(CCNC(=O)C(=O)NCC2OCCN2S(=O)(=O)c2cc(F)ccc2F)cc1OC (configuration not stated) | – | inconclusive: 25.1 µM [inhibitor, partial curve]
63 | O=C(CN1CCN(c2ccc(O)cc2)CC1)Nc1ccc2c(c1)OCCCO2 | – | inconclusive: 25.1 µM [inhibitor, single point]
64 | Cc1ccc(S(=O)(=O)Nc2cccnc2Oc2ccc(Cl)cc2)cc1 | – | inconclusive: 8.91 µM [inhibitor, partial curve]
65 | Cc1ccc(CNC(=O)C2CC(=O)OC23CCCC3)c(C)c1 (configuration not stated) | – | inconclusive: 22.4 µM [inhibitor, single point]
66 | CCc1ccccc1N1CC(C(=O)Nc2cc(S(=O)(=O)N3CCCC3)ccc2Cl)CC1=O (configuration not stated) | – | inconclusive: 31.6 µM [inhibitor, single point]
67 | COC(=O)c1[nH]c(C)c(/C(O)=C2\C(=O)C(=O)N(CCN(C)C)C2c2cc(OC)ccc2OC)c1C (configuration not stated) | inactive: 2.13% | –
